In publication PMC4336329 (PLoS ONE, 2015):
Screen size: about 310,000 compounds; about 2,200 (0.71%) showed an effect of 50% or more. The effect is printed as a negative number. The list shows a part of the results.

These compounds were tested against human ether-à-go-go-related gene (hERG) potassium channel (human, UniProt Q12809) (assay: primary screen, population patch clamp on CHO cells stably expressing hERG).
Sequence of human ether-à-go-go-related gene (hERG) potassium channel (Q12809 whole entry, looked up): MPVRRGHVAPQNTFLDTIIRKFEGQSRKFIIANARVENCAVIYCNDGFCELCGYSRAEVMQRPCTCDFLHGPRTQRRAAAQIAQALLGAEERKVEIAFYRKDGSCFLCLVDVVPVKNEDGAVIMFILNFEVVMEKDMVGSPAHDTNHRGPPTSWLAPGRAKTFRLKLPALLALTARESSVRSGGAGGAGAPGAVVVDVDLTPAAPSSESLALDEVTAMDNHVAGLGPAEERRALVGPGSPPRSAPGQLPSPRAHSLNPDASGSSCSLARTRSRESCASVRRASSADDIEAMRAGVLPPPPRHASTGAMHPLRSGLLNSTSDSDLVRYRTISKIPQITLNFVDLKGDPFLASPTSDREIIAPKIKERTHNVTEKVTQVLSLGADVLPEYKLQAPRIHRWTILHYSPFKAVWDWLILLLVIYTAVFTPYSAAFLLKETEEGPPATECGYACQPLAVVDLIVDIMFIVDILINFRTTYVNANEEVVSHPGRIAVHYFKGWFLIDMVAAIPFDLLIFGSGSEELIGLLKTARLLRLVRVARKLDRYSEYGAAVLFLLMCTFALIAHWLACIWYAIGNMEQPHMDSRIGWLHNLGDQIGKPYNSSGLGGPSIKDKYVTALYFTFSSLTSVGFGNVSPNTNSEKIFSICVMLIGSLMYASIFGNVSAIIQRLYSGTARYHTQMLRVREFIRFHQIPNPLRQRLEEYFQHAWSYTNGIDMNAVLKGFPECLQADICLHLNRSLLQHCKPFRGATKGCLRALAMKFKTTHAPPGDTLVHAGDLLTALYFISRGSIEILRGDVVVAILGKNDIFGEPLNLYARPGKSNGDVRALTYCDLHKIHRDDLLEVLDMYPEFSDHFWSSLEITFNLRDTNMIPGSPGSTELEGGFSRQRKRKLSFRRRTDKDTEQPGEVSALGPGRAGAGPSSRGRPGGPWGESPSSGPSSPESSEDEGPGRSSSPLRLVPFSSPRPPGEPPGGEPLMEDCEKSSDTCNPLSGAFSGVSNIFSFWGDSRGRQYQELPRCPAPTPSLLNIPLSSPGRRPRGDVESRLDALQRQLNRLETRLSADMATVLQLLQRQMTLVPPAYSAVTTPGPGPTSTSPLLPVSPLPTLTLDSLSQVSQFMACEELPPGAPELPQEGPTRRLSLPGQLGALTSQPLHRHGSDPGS

Row | Compound | hERG current change (%, negative = inhibition) at 1uM
1 | FC(F)(F)c1cnc(N2CCC(=NOCc3ccc(Cl)cc3)CC2)c(Cl)c1 | 19.7%
2 | CC(C)c1onc(C(=O)Nc2cccnc2Cl)c1[N+](=O)[O-] | 12.6%
3 | Cc1cccc(Nc2ccc(S(=O)(=O)N3CCOCC3)cc2[N+](=O)[O-])c1 | -5.27%
4 | CC(C)NC(=O)c1ccc2c(c1)N(CC(=O)N1CCOCC1)C(=O)C(C)(C)O2 | -9.82%
5 | CC1CCCCC1NC(=O)CSc1nnc(CC(=O)Nc2ccccc2F)n1C (stereo not shown) | 20.2%
6 | COc1ccccc1NS(=O)(=O)c1ccc(Cl)c(NC(=O)C(C)N2C(=O)c3ccccc3C2=O)c1 (stereo not shown) | 4.96%
7 | C/C(=N\N=C\c1ccccc1F)c1nnn(-c2nonc2N)c1C | 4.41%
8 | Cc1cc(C)nc(Sc2c(C)n[nH]c2C)n1 | 9.25%
9 | CC1(C)CC(=O)C(Sc2ccccc2C(=O)O)=C(O)C1 | 12%
10 | O=C(CSCc1ccccc1)Nc1ccc2c(c1)OCO2 | 11%
11 | CCCCCCN(C(=O)CCCCCN1C(=O)NC(c2ccc(-c3ccccc3)cc2)C(C(=O)OCc2ccccc2)=C1C)C(C)C(=O)NCCCC (stereo not shown) | 15.8%
12 | Cc1ccc(/C=N/n2c(-c3ccccc3)n[nH]c2=S)cc1 | 16.2%
13 | CCOc1cc(NC(=S)NCCCN(C)C)c(OCC)cc1NC(=O)c1cccs1 | -2.39%
14 | O=C(c1ccc2ccccc2c1)c1c[nH]cc1-c1ccccc1 | 15.7%
15 | Cn1c(-c2nnn(-c3ccc(F)cc3)n2)cc2ccccc21 | 20.1%
16 | COc1ccc(CCNCC(O)COc2cccc(Br)c2)cc1 (stereo not shown) | -2.83%
17 | CC1CCCC(NC(=O)COC(=O)c2cccnc2Cl)C1C (stereo not shown) | 1.89%
18 | O=C(O)c1ccc2c(c1)N(Cc1cccc(F)c1)C(=O)CS2 | 2.35%
19 | Cc1ccnc(NC(=O)CSc2ccc3c(c2)OCCO3)c1 | 10.7%
20 | Cc1cccc(N2C(=O)C(O)=C(C(=O)c3cccs3)C2c2ccccc2)n1 (stereo not shown) | 15%
21 | CCOC(=O)C1(Cc2ccc(Cl)cc2)CCN(C(=O)c2cscn2)CC1 | -12.4%
22 | O=C(O)c1ccc(CNCc2ccc(Cl)cc2)cc1 | 11.3%
23 | CC1(C)C2CCC1(C)C(OC(=O)c1ccccc1C(=O)O)C2 (stereo not shown) | 11.8%

Row | Compound | hERG current change (%, negative = inhibition) at 1uM
24 | CN(C)/C=N/c1cc(=O)[nH]c(=O)n1Cc1ccccc1 | 9.73%
25 | COc1ccc(S(=O)(=O)Cc2ccc(C(=O)NC(C)C)o2)cc1 | 14%
26 | COc1cccc(C(=O)n2ccc(-c3cccs3)n2)c1 | 12.2%
27 | COc1ccc(C(=O)N2CCCC(CNC(=O)c3ccc(F)cc3)C2)cc1OC (stereo not shown) | 2.4%
28 | Cc1cc2oc(=O)cc(CN3CCOCC3)c2cc1C(C)C | -2.79%
29 | Cc1cc(C)cc(C(=O)Nc2nnc(SCC(=O)N3CCCc4ccccc43)s2)c1 | 8.23%
30 | Cc1ccc(Sc2ccc(C(=O)N3CCOCC3)cc2[N+](=O)[O-])cc1 | 0.678%
31 | CC(NC(=O)NCCCC(=O)O)(C(F)(F)F)C(F)(F)F | 3.96%
32 | CN(C)c1ccc(P(=O)(Nc2ccccc2)N2CCOCC2)c(NC(=O)c2cccs2)c1 (stereo not shown) | 7.94%
33 | Cc1cccc(NC(=O)Cn2cc(C(=O)c3ccco3)c3ccccc32)c1 | -0.405%
34 | O=C(Nc1ccccc1OCc1ccccc1)c1ccccc1Br | 17.8%
35 | O=C(CN1C(=O)C2CC=CCC2C1=O)N1CCN(c2ccc([N+](=O)[O-])cc2)CC1 (stereo not shown) | -64.2%
36 | CC(=O)NC1CC2CCCC(C1)N2CC(=O)N1CCCc2ccccc21 (stereo not shown) | 6.84%
37 | COCCN(CC(=O)Nc1ccccc1C(F)(F)F)C(=O)/C=C/c1cc(Cl)c2c(c1)OCO2 | 12.6%
38 | O=C(Nc1ccon1)c1sc2cc(F)ccc2c1Cl | 4.69%
39 | CCCCCn1c(=O)[nH]c2cc(C(=O)NCCCN3CCCCC3C)ccc2c1=O (stereo not shown) | -18.8%
40 | CCOC(=O)/C(C#N)=C1/C=Cc2ccccc2N1CC | 6.62%
41 | COc1cccc(CNCc2ccc(OC)cc2OC)c1.O=C(O)C(=O)O | 9.26%
42 | Cc1ccc(NC(=O)c2ncc(Cl)c(Cl)c2Cl)cc1C | 7.02%
43 | CCNC(=S)Nc1ccc(C)c(S(=O)(=O)Nc2ccccc2OC)c1 | 6.96%
44 | CC1(C)CC(=O)C(C(=O)/C=C/NCCc2ccccc2)C(=O)C1 | 4.59%
45 | Cc1ccc(SCc2cn3ccccc3n2)cc1 | 8.82%
46 | O=C1c2oc3ccc(F)cc3c(=O)c2C(c2ccccc2)N1CC1CCCO1 (stereo not shown) | 1.38%
